# PMC4336329 (PLoS ONE, 2015)
# Out of some 310,000 compounds screened, about 2,200 (0.71%) showed an effect of 50% or more. The effect is printed as a negative number. This is one part of the list.
# Target: human ether-à-go-go-related gene (hERG) potassium channel (human, UniProt Q12809)
# Assay: primary screen, population patch clamp on CHO cells stably expressing hERG
# Sequence of human ether-à-go-go-related gene (hERG) potassium channel (Q12809 whole entry, looked up): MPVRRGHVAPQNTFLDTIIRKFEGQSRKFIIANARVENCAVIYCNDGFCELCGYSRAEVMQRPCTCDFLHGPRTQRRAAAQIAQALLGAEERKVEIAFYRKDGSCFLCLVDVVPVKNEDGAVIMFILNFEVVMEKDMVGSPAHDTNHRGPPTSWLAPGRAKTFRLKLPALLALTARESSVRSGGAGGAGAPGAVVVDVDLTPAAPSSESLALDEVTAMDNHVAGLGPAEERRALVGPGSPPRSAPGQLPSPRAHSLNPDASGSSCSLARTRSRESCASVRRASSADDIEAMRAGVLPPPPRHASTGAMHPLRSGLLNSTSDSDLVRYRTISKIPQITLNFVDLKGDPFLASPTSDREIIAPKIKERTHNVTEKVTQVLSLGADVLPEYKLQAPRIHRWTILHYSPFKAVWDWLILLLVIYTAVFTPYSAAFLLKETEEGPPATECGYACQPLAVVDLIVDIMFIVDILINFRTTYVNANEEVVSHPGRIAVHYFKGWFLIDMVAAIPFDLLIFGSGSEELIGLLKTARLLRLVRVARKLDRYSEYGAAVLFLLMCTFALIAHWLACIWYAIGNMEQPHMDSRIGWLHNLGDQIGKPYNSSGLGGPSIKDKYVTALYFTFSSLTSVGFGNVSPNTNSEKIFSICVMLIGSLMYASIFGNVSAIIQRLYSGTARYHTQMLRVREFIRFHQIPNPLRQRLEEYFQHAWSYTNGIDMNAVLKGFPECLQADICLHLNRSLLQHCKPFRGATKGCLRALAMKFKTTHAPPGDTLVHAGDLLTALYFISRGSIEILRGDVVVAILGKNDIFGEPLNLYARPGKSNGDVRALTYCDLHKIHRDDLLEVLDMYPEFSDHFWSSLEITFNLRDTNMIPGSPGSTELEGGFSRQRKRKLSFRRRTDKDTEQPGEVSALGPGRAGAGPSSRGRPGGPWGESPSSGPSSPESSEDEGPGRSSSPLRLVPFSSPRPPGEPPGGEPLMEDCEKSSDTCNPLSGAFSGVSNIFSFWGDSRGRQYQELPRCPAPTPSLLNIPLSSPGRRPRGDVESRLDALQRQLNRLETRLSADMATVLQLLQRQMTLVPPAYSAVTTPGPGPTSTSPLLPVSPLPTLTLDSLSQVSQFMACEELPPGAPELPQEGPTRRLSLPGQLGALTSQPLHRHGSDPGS
row,Compound,"hERG current change (%, negative = inhibition) at 1uM [%]"
1,O=C(C1=C[C@H](C2CCCCC2)C[C@H](OCCCCO)O1)N1CCOCC1,14.9
2,Cn1c(=O)c2c(SCC(=O)N3CCOCC3)nc(-c3ccccc3F)nc2n(C)c1=O,9.63
3,COc1ccccc1-c1c(C)oc2c(CN3CCN(C)CC3)c(O)ccc2c1=O,23
4,CCOc1ccccc1C(=O)OCC(=O)Nc1ccc(OC(F)F)cc1,-10.3
5,CN(c1ccccc1C(=O)N1CCN(c2ccccc2)CC1)S(C)(=O)=O,0.854
6,Br.COc1ccc(C2=CSC3=NCCN23)cc1F,-3.47
7,N=C1c2ccccc2CN1NC(=O)c1cccc(S(=O)(=O)N2CCOCC2)c1,-10.3
8,CC1=C(Nc2ccc(C(=O)O)cc2)C(=O)c2ccccc2C1=O,12.4
9,O=C(Cc1ccc(S(=O)(=O)N2CCOCC2)s1)OCc1ccc(Cl)cc1,4.81
10,COc1cc(NC(=O)c2ccccc2)c(OC)cc1NC(=O)Cc1ccccc1,8.02
11,CC(C)N(Cc1ccccc1)S(=O)(=O)N(C)C,9.23
12,Clc1ccc(CO/N=C/c2cccs2)cc1,15.2
13,CC(=O)c1cccc(N/C=C\c2nnnn2-c2ccc(F)cc2)c1,5.26
14,O=C(c1cc(-c2cccc(Cl)c2)on1)N1CCCCCC1,9.62
15,COc1cc(C2=NOC(C(=O)NCc3ccc(F)cc3)C2)cc(OC)c1OC (centres unmarked),-3.57
16,Cc1ccc(C(=O)C2=C(O)C(=O)N(CC3CCCO3)C2c2ccccc2F)o1 (centres unmarked),18.1
17,O=c1[nH]c2cc3c(cc2cc1CN(Cc1cccnc1)C(=S)NCc1ccco1)OCO3,11.7
18,COc1ccc(/C=C(\NC(=O)c2ccccc2)C(=O)OC[C@@H]2CCC[N+]3(C)CCCCC23)cc1OC.[I-] (some centres unmarked),3.82
19,CC1(C)Cc2c(cnn2-c2ccc(F)cc2)C(NC(=O)CCN2CCCCO2)C1 (centres unmarked),-14.5

row,Compound,"hERG current change (%, negative = inhibition) at 1uM [%]"
1,CCOC(=O)C(C)Sc1ncnc2c1nnn2-c1ccc(F)cc1 (centres unmarked),8.8
2,O=C(c1c[nH]c2ccccc12)N1CCN(c2ccccc2)CC1,6.51
3,O=C(O)/C=C/C(=O)N1N=C(c2ccco2)CC1c1ccco1 (centres unmarked),12.8
4,CNS(=O)(=O)c1ccc(NC(=O)Nc2ccc3c(c2)OCO3)cc1,18.3
5,COc1ncnc2c1cnn2-c1ccccc1,23.5
6,CC(=O)N1CCc2cc(S(=O)(=O)NC3CCCc4ccccc43)ccc21 (centres unmarked),14.4
7,O=C(OCCN1CCCCC1)c1ccc(O)cc1,-12
8,Cc1nn(CC(=O)N(C)C2CCC(C)CC2)c(C)c1S(=O)(=O)N(C)C (centres unmarked),0.624
9,CCOc1ccc(C(=O)N2CCN(S(=O)(=O)c3cccs3)CC2)c(OCC)c1,7.18
10,Cc1ccc(NCC(=O)N/N=C/c2ccc(-c3cccc(C(F)(F)F)c3)o2)cc1,12.9
11,Cc1c(C)n(C(=O)CSc2nncn2C)c2ccccc12,4.96
12,COc1ccc(CCNC(=O)CNC(=O)Cn2cnc3sc(C)c(C)c3c2=O)cc1OC,12.1
13,OCC1(Cc2ccccc2F)CCCN(Cc2c(F)ccc(F)c2F)C1 (centres unmarked),1.91
14,CCOC(=O)C1(C)NC(c2ccco2)C2C(=O)N(c3ccc(C)cc3)C(=O)C21 (centres unmarked),10.6
15,CC1=C(C(=O)Nc2ccc(C)cc2C)C(c2ccc([N+](=O)[O-])cc2)n2ncnc2N1 (centres unmarked),13.6
16,COc1ccccc1/C=N/NC(=O)c1cc2c(OC)c(OC)ccc2[nH]1,13
17,COc1ccc(/C=N/Nc2nn3cnnc3c3ccccc23)cc1,-3.29
18,CN1CCN(c2c(C#N)c(C(F)(F)F)nn2C)CC1,10.5
19,CC(C)(C)N1CC(c2nc3ccccc3n2CCOc2ccccc2)CC1=O (centres unmarked),0.388

row,Compound,"hERG current change (%, negative = inhibition) at 1uM [%]"
1,O=C(CNC(=O)c1cccs1)NCC(=O)OCc1ccccc1Cl,9.53
2,O=C(N/N=C/c1cccc([N+](=O)[O-])c1)C1CC(=O)N(c2ccc(Cl)cc2)C1 (centres unmarked),-39.3
3,Nc1ccc(Sc2ccccc2Cl)nc1,0.8
4,COCCn1c(SC(C)C(=O)NCC2CCCO2)nc2sc3c(c2c1=O)CCC3 (centres unmarked),-0.616
5,Cc1ccc(S(=O)(=O)N2CCC(C(=O)OCC(=O)N3CC(=O)Nc4ccccc43)CC2)cc1,10
6,Cc1ccc(C(=O)N/C(=C/c2ccco2)C(=O)N2CCOCC2)cc1,8.19
7,COC(=O)c1nn(-c2ccc(C)cc2)ccc1=O,8.92
8,Cc1ccc(C2CC(c3cccs3)=NN2S(=O)(=O)c2ccc(C)cc2)cc1 (centres unmarked),13.6
9,C=CCOCCN(C)C1=NS(=O)(=O)c2cc([N+](=O)[O-])ccc21,4.63
10,COc1cc(N)c(Cl)cc1C(=O)OCC(=O)N1CCc2ccccc21,-3.41
11,COc1ccccc1N1C(=O)C2C(c3ccc(F)cc3)NN(C(=O)c3ccc(C)cc3)C2C1=O (centres unmarked),8.24
12,Cl.Clc1c(OCCCn2ccnc2)ccc2ccccc12,6.44
13,Cc1ccsc1/C=N/NC(=O)CNC(=O)c1ccccc1,13.6
14,CCOc1ccc(C(=O)N/N=C/c2ccccc2[N+](=O)[O-])cc1,12.7
15,CC(C)OCCCNC(=O)C1CC(=O)N(C2CCCCCCC2)C1 (centres unmarked),13.6
16,Cc1ccc2nc(SCC(=O)Nc3nonc3C)[nH]c2c1,18.3
17,C(=N\Nc1nc(-c2ccccc2)cs1)/c1cccnc1,-8.23
18,CCN(CC)S(=O)(=O)c1cc(NC(=O)C(C)N2CCN(c3ccccn3)CC2)ccc1C (centres unmarked),4.16
